Test results taken from PubChem BioAssay AID686978 (National Center for Advancing Translational Sciences (NCATS), 2013).
The campaign covered roughly 420,000 compounds. About 64,000 (15%) were called active. Inconclusive means that the source gave no clear call. Such entries were picked first, then a sample of the others. Calls come from the whole dose curve; as a rule, active = well fitted inhibition curve with a large enough effect; inconclusive = small, poorly fitted or top-dose-only effect; inactive = flat fitted curve, though single readings scatter. Potencies of inconclusive entries are left out as doubtful fits.

Assay: qHTS for Inhibitors of human tyrosyl-DNA phosphodiesterase 1 (TDP1): qHTS in cells in absence of CPT; note: nearly all actives have a fitted effect of over 55% in size
Conditions: DT40 Tdp1-/- hTDP1 cells, no CPT, ATP luminescence, 48 h; activity change, negative = growth inhibition: at 46.2 µM (top of the series) unless noted
Method in brief: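 No-CPT arm: Tdp1-/-;hTDP1 DT40 cells (400/well) plus compounds, incubated ≥48 hr at 37 °C. Readout CellTiter-Glo luminescence.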
% is set by controls: 0 for no effect and ±100 for the full control effect; potency is the fitted concentration of half-maximal effect; tags give direction and shape of the fitted curve.

Structure (SMILES) | Potency | activity change, negative = growth inhibition
O=C(CSc1nc2ccccc2[nH]1)N/N=C/C=C\c1ccccc1[N+](=O)[O-] | active: 20.6 µM | 
COC(=O)[C@@H](Cc1ccccc1)NC(=O)CC[C@H]1O[C@@H](n2cc(C)c(=O)[nH]c2=O)C[C@@H]1O |  | inactive: -4.82%
COc1ccc(Cn2c(=O)c3ccccc3n3c(-c4ccc(C)cc4)nnc23)cc1 | inconclusive [inhibitor, single point] | 
CCn1c(SCc2nc(-c3cccs3)no2)nnc1-c1c[nH]c2ccccc12 | active: 23.1 µM | 
CCOc1ncccc1C(=O)OCC(=O)Nc1ccc(C(C)C)cc1 | inconclusive [inhibitor, partial curve, poor fit] | 
O=C(Cn1ncc2c(=O)oc3ccccc3c21)NCCN1CCN(c2ccccc2F)CC1 | inconclusive [inhibitor, partial curve] | 
CC1(C)C2CC=C(/C=N/NC(=O)c3ccc(Cl)cc3)C1C2 (configuration not stated) | inconclusive [inhibitor, single point] | 
CCOc1cc(/C=N/O)ccc1OS(=O)(=O)c1ccc(C)cc1 | inconclusive [inhibitor, single point] | 
CC(C)C1C(=O)N(Cc2cn(CCC3OCCO3)nn2)CCS(=O)(=O)N1Cc1ccc(-c2ccc(F)nc2)cc1 (configuration not stated) | active: 16.4 µM | 
CCN(CC(=O)NCc1cccs1)C(=O)/C=C/c1ccc(Cl)c(Cl)c1 | inconclusive [inhibitor, single point] | 
O=C(Oc1ccc(Br)cc1)c1cccnc1 |  | inactive: -13.7%
O=C1CCC(=O)c2ccc3c4c(ccc1c24)CC3 | inconclusive [inhibitor, partial curve, poor fit] | 
O=C1c2ccccc2C(=O)N1c1nc(-c2ccc(F)cc2)cs1 | inconclusive [inhibitor, single point] | 
COc1ccc(N2CCN(C(=O)c3cc4cc(Cl)ccc4[nH]3)CC2)cc1 |  | inconclusive: -31.2% [inhibitor]
Cc1ccc(OCc2cc(=O)n3cc(C)sc3n2)c(NC(=O)c2ccco2)c1 | inconclusive [inhibitor, partial curve, poor fit] | 
CN1C[C@H]2CON(C)[C@H]2C[C@H]1c1cccc(N2CCOCC2)c1 |  | inactive: 6.73%
COCCn1c(C)cc(C(=O)CSc2nc3ccccc3c(=O)n2Cc2ccco2)c1C | inconclusive [inhibitor, single point] | 
COc1cc(/C=C(\C#N)C(=O)NC2CCCCC2C)ccc1OS(=O)(=O)c1ccc(C)cc1 (configuration not stated) | active: 16.4 µM | 
COc1cc(C(=O)Nc2c(C(=O)Nc3ccccc3F)oc3ccccc23)cc(OC)c1OC | active: 4.11 µM | 
CCOc1ccccc1NC(=O)C1CCCN(S(=O)(=O)c2cccc3cccnc23)C1 (configuration not stated) | inconclusive [inhibitor, single point] | 
CCCCCCOC(=O)CC1CC(C(C)=O)C1(C)C (configuration not stated) | inconclusive [inhibitor, single point] | 

Structure (SMILES) | Potency | activity change, negative = growth inhibition
COc1ccccc1N(CC(=O)NCCSc1ccc(Cl)cc1)S(C)(=O)=O |  | inactive: -21.5%
O=C(NC1CCN(Cc2ccccc2)CC1)c1ccccc1NS(=O)(=O)c1ccc(F)c(F)c1 | inconclusive [inhibitor, single point] | 
COc1ccc2[nH]c3c(c2c1)CCN1C(=O)N([C@@H](C)C(=O)NCc2ccco2)C(=O)[C@]31C | inconclusive [inhibitor, single point] | 
Cc1cc(C(=O)Nc2ccc(F)cc2)c2ccccc2n1 |  | inactive: -4.55%
COc1ccccc1NC(=S)NC(=O)c1c(-c2ccccc2Cl)noc1C |  | inactive: -7.62%
CC(C)NCc1cc(Br)ccc1OCc1ccccc1 | inconclusive [inhibitor, single point] | 
O=c1cc(CN2CCC3(CC2)OCCO3)c2c(ccc3ccccc32)o1 | inconclusive [inhibitor, single point] | 
O=C(C[C@H]1C[C@H](C(=O)N2CCOCC2)[C@@]2(CCC3CCCC3)c3[nH]c4ccc(Cl)cc4c3CCN2C1=O)NCCCn1ccnc1 | inconclusive [inhibitor, single point] | 
C=C1C(CCl)(CCl)C2(Cl)C(Cl)C(Cl)C1(Cl)C2(Cl)Cl (configuration not stated) | inconclusive [inhibitor, single point] | 
Nc1nc(NC(=O)c2cccc(S(=O)(=O)N3CCCCCC3)c2)nc(-c2ccccc2)n1 | inconclusive [inhibitor, single point] | 
Cc1cccc(N2CCN(C(=O)Cc3ccc(Br)cc3)CC2)c1C | inconclusive [inhibitor, single point] | 
O=C(Nc1cccc(NC(=O)c2ccc(Br)cc2)c1)c1ccccc1 | inconclusive [inhibitor, full curve] | 
Cc1noc(NC(=O)c2ccc(Cl)cc2)c1Cl | inconclusive [inhibitor, partial curve] | 
CCCn1c(NCc2ccccc2F)nc2ccccc21 | inconclusive [inhibitor, single point] | 
COc1ccc(CNC(=O)COC(=O)CNC(=O)c2sc3ccccc3c2Cl)cc1OC |  | inactive: 6.14%
COc1cccc(NC(=O)c2cc(-c3ccc(OC)cc3OC)nc3ccccc23)c1 | inconclusive [inhibitor, single point] | 
O=C(NC(=S)Nc1ccc(N2CCCCC2)cc1)c1cccs1 | inconclusive [inhibitor, single point] | 
CCN(CC)CCC(c1ccc(OC)cc1)c1c(O)cc(OC)cc1OC (configuration not stated) | inconclusive [inhibitor, partial curve] | 
CCn1c(/C=C2\C(=O)N(C(C)C)c3ccccc32)nc2ccccc2c1=O | inconclusive [inhibitor, single point] | 
C=CCn1c(NC(=O)c2ccc(C)cc2)nc2ccccc21 | inconclusive [inhibitor, single point] | 
CCC(=O)N1c2ccc(S(=O)(=O)CCC(=O)N3CCN(c4ccc(F)cc4)CC3)cc2CC1C (configuration not stated) | active: 13 µM | 
